For seven molecules, binding results are on record in article PMC4945875.

Results are given in words; binding and its absence hold for the method and conditions named. For part of these data: In cells and extracts the contact can be indirect. Some results given as binding are weak or reduced against the parent protein; the word gives no strength. For part of these data: Sequences can lack the tags named with a protein.

The target of one test is T1, LPAATδ-tdTomato (human) (UniProt Q9NRZ5).
T1 sequence: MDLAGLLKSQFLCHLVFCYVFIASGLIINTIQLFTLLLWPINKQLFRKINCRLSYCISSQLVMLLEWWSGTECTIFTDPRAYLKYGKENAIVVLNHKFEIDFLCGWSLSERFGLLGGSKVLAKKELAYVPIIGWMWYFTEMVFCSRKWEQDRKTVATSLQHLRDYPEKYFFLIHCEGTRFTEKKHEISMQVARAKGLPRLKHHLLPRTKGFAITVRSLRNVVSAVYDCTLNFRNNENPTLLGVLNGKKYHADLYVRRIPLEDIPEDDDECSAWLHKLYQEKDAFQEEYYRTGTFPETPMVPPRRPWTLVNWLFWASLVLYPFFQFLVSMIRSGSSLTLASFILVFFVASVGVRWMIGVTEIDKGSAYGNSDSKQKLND
Briefly: FRET or BRET; FLIM-FRET in fixed COS7 cells co-transfected with donor E^0GFP–BARS and acceptor LPAATδ-tdTomato; donor lifetime in the Golgi area; steady state and VSVG traffic pulse (10 min after the 32 °C release). (In general: Bioluminescence resonance energy transfer reports proximity on the nanometre scale.)

For the next test, the target named is T2, LPAATγ–Flag (human) (UniProt Q9NRZ7).
T2 sequence: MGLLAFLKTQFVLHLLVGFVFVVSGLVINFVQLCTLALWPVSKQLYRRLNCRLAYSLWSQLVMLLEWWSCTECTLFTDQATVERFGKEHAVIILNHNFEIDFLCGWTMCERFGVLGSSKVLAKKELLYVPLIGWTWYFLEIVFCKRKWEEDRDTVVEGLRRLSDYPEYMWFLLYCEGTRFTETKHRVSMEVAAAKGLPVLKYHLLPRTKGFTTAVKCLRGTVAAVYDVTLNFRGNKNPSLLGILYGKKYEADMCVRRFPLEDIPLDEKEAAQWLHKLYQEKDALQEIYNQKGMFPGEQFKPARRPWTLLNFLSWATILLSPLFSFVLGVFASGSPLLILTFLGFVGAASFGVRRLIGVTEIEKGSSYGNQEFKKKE
The test can be described thus: co-IP; IP with anti-FLAG M2 affinity gel from lysate of HeLa cells co-transfected with BARS and LPAAT–Flag; 0.2% Triton X-100, 4 °C; western blot with anti-BARS. (In western blotting, separated proteins are transferred to a membrane and probed.)

In test [1] the target is T3, LPAATδ–Flag (human) (UniProt Q9NRZ5).
T3 sequence: T1 sequence
The description is as above.

Test [2] has as its target T3, LPAATδ–Flag (human). The test can be described thus: co-IP; co-precipitation at steady state and during a traffic pulse (Supplementary Fig. 8); cells and constructs not given.
The target of another test is T4, GST-LPAATδ (full length) (UniProt Q9NRZ5).
T4 sequence: T1 sequence
Briefly: pull-down; GST pull-down: 3 μg His-BARS with 4 μg GST-LPAATδ full length or 3 μg GST-LPAATδ (aa 152–251), glutathione Sepharose; 50 mM Tris pH 8.0, 100 mM KCl, 0.2% Triton X-100, 4 °C; both purified.

The target of another test is T5, GST-LPAATδ (aa 152–251) (UniProt Q9NRZ5).
T5 sequence: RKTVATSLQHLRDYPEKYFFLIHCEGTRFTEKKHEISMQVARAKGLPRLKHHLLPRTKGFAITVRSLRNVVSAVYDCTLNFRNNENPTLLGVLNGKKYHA
Described as above.

The target in test [3] is CtBP1-S/BARS (BARS-pCDNA3) (UniProt Q9Z2F5). The test can be described thus: co-IP; IP with anti-BARS polyclonal antibody and protein A Sepharose from lysate of HeLa cells co-expressing BARS and LPAAT–Flag; 0.2% Triton X-100, 4 °C; western blot.
The next test has as its target His-BARS (UniProt Q9Z2F5). The test can be described thus: pull-down; histidine pull-down: His-BARS (20 μg, treated with buffer alone) with 1 mg lysate of LPAATδ–Flag expressing COS7 cells, Ni-NTA agarose, 4 °C; only the target purified.
Test [4] deals with CtBP1-S/BARS (BARS-pCDNA3) (UniProt Q9Z2F5). Briefly: co-IP; IP with anti-BARS polyclonal antibody from 0.8 mg COS7 lysate, with or without 160 μg purified EcLPAAT (2 h, 4 °C); 0.2% Triton X-100.
Test [5] addresses GST-BARS (UniProt Q9Z2F5). The test can be described thus: condition: only GST-BARS pre-treated with 100 μM NAD^+; pull-down; GST pull-down of EcLPAAT with GST-BARS (5 μg) first incubated with 100 μM NAD^+ for 1 h at room temperature; both purified.
In test [6] the target is GST-BARS (UniProt Q9Z2F5). Briefly: pull-down; GST pull-down: 3 μg EcLPAAT with 5 μg GST-BARS, glutathione Sepharose; 20 mM Tris pH 8.0, 1 mM EDTA, 0.2% Triton X-100, 100 mM KCl, overnight, 4 °C; both purified.
The target in test [7] is CtBP1-S/BARS (BARS-pCDNA3) (UniProt Q9Z2F5). The test can be described thus: co-IP; competition: 160 μg purified EcLPAAT added to 0.8 mg COS7 lysate before IP with anti-BARS polyclonal antibody; 0.2% Triton X-100, 4 °C; only the binder purified.
The target in test [8] is GST-BARS (UniProt Q9Z2F5). Briefly: condition: only GST-BARS pre-treated with 120 μM BAC; pull-down; GST pull-down of EcLPAAT with GST-BARS (5 μg) first incubated with 120 μM HPLC-purified BAC for 3 h at 37 °C; both purified.

For the molecule E^0GFP–BARS (from UniProt Q9Z2F5 1-430), the binding entry with LPAATδ-tdTomato (human) was “binds”.
“CtBP1-S/BARS (BARS-pCDNA3) (from UniProt Q9Z2F5 1-430)”: the binding result with LPAATγ–Flag (human), with LPAATδ–Flag (human) [1] and with LPAATδ–Flag (human) [2] was “binds” each time.
As to His-BARS (from UniProt Q9Z2F5 1-430), the binding entry with GST-LPAATδ (full length) and with GST-LPAATδ (aa 152–251) was “binds” each time.

B1: LPAATδ–Flag (enzyme, UniProt Q9NRZ5 1-378)
chain: T1 sequence
Take B1: the binding result (in test [3]; in the test with His-BARS; in test [4]) was “binds” each time.

B2: LPAATγ–Flag (enzyme, UniProt Q9NRZ7 1-376)
chain: T2 sequence
For B2, the binding result in [3] was “binds”.

B3: LPAATη–Flag (enzyme, UniProt Q643R3 1-524)
chain: MSQGSPGDWAPLDPTPGPPASPNPFVHELHLSRLQRVKFCLLGALLAPIRVLLAFIVLFLLWPFAWLQVAGLSEEQLQEPITGWRKTVCHNGVLGLSRLLFFLLGFLRIRVRGQRASRLQAPVLVAAPHSTFFDPIVLLPCDLPKVVSRAENLSVPVIGALLRFNQAILVSRHDPASRRRVVEEVRRRATSGGKWPQVLFFPEGTCSNKKALLKFKPGAFIAGVPVQPVLIRYPNSLDTTSWAWRGPGVLKVLWLTASQPCSIVDVEFLPVYHPSPEESRDPTLYANNVQRVMAQALGIPATECEFVGSLPVIVVGRLKVALEPQLWELGKVLRKAGLSAGYVDAGAEPGRSRMISQEEFARQLQLSDPQTVAGAFGYFQQDTKGLVDFRDVALALAALDGGRSLEELTRLAFELFAEEQAEGPNRLLYKDGFSTILHLLLGSPHPAATALHAELCQAGSSQGLSLCQFQNFSLHDPLYGKLFSTYLRPPHTSRGTSQTPNASSPGNPTALANGTVQAPKQKGD
With B3, in test [3], the binding entry is given as “no binding”.

B4: His-EcLPAAT (His-plsC) (enzyme, UniProt P26647 1-245)
chain: MLYIFRLIITVIYSILVCVFGSIYCLFSPRNPKHVATFGHMFGRLAPLFGLKVECRKPTDAESYGNAIYIANHQNNYDMVTASNIVQPPTVTVGKKSLLWIPFFGQLYWLTGNLLIDRNNRTKAHGTIAEVVNHFKKRRISIWMFPEGTRSRGRGLLPFKTGAFHAAIAAGVPIIPVCVSTTSNKINLNRLHNGLVIVEMLPPIDVSQYGKDQVRELAAHCRSIMEQKIAELDKEVAEREAAGKV
Take B4: the binding result with GST-BARS [5] is “no binding”; in the test with GST-BARS [6], “binds”; in [7] it was “binds”; in the test with GST-BARS [8], “no binding”.
